Measurements: PubChem BioAssay AID602340 (Broad Institute, 2012)
Out of some 330,000 compounds screened, about 2,600 (0.79%) were called active. This list was built around the results that the source calls inconclusive (neither active nor inactive); the mix of calls is not that of the screen.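 Rule for the calls: active = mean ATP rescue above about 67%, or every replicate alone reaching that limit (limit read from the data, passing the limit was not always enough); inconclusive = no clear call, values can overlap the other calls; inactive = mean under the limit and some replicate under it.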

Test: suppressors of statin myotoxicity in C2C12 myotubes, primary screen, cell-based, single point, plate reader (AID 602340);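 note: myotubes were challenged with 10 µM simvastatin during compound exposure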
Conditions: C2C12 myotubes + simvastatin, ATP luminescence, 48 h; at 7.49 µM; active compounds read high; scaled: DMSO 0, geranylgeraniol control 100

SMILES | rescue of ATP level
C[C@H]1CN([C@@H](C)CO)C(=O)Cc2cc(NS(=O)(=O)c3cccs3)ccc2O[C@@H]1CN(C)S(=O)(=O)c1cccs1 | inactive: 5.26%
C=CCn1c(SCC(=O)Nc2ccc(N(C)C)cc2)nnc1-c1cccc(C)c1 | active: 83.6%
CSc1nsc(/C=C/Nc2ccc(Cl)cc2)c1C#N | active: 125%
Nc1nc2c(s1)C(=O)CCC2 | active: 90.5%
Cc1c(C(=O)N2CCOCC2)oc2ccc(S(=O)(=O)N3CCCC3)cc12 | active: 121%
COc1cc(CO)ccc1Oc1nnnn1-c1ccc(C(N)=O)cc1 | inconclusive: 69.4%
O=C(Nc1ccc(Cc2ccncc2)cc1)c1ccc([N+](=O)[O-])o1 | inconclusive: 66.1%
CCCNS(=O)(=O)c1ccc(NC(=O)Cc2cccs2)cc1 | inconclusive: 81.7%
O=C(O)c1ccc(CSc2nc3ccc(NC(=O)c4ccccc4C(=O)O)cc3s2)cc1 | inactive: 8.08%
CC(C)C#Cc1ccc2c(c1)O[C@@H](CN(C)C(=O)CC1CC1)[C@H](C)CN([C@H](C)CO)S2(=O)=O | inactive: 8.55%
COc1ccc(/C=N/Nc2ccccc2C(=O)O)cc1 | inconclusive: 48.2%
COc1cccc(N2C(=NC(=O)c3ccccc3)SC3CS(=O)(=O)CC32)c1 (stereo not drawn) | inconclusive: 70.5%
C[C@H]1CN([C@@H](C)CO)C(=O)c2cccc(NC(=O)Nc3cccc4ccccc34)c2O[C@H]1CN(C)Cc1ccc(Cl)c(Cl)c1 | inconclusive: 74.5%
C[C@H]1CN([C@@H](C)CO)C(=O)c2cc(NS(=O)(=O)c3ccc(Cl)cc3)ccc2O[C@H]1CN(C)S(=O)(=O)c1cccs1 | inconclusive: 70.2%
Cc1ccc(C(=O)N2C(=O)c3cccc(N)c3C2=O)o1 | inconclusive: -2.21%
COc1cccc(-c2c(NC(=O)c3ccco3)oc3ccc(Cl)cc3c2=O)c1 | inactive: 6.7%
O=C(Cc1ccc(NC(=O)C2CCCN(C(=O)CCc3ccccc3)C2)cc1)Nc1cccc(C(=O)N2CCCC2)c1 (stereo not drawn) | inactive: -12.1%
CC=Cc1ccc2n(c1=O)C[C@H]1[C@H](CO)[C@@H](C(=O)NC3Cc4ccccc4C3)[C@@H]2N1C(C)=O (mixture of isomers) | inactive: 10.6%
C[C@@H]1CN([C@H](C)CO)C(=O)Cc2cc(NC(=O)Nc3cccc4ccccc34)ccc2O[C@H]1CN(C)Cc1ccc(Cl)c(Cl)c1 | inconclusive: 70.3%
CC1CCCCN1C(=O)COC(=O)C1CCN(S(=O)(=O)c2ccc(Cl)c(C(F)(F)F)c2)CC1 (stereo not drawn) | inactive: -1.51%
CC1CCCCN1C(=O)C1CCCN(S(=O)(=O)c2cccc3nsnc23)C1 (stereo not drawn) | inconclusive: 93.9%
CS(=O)(=O)N(CC(=O)O)c1ccc(Oc2ccccc2)cc1 | inconclusive: 109%
COc1ccc(S(=O)(=O)NCCSC(C)(C)C)cc1Cl | inconclusive: 99.6%
CC(C)(C)C(=O)Nc1nc(=S)ss1 | inconclusive: 76.9%

SMILES | rescue of ATP level
OCCNc1nc(C2CC2)nc2c1nnn2Cc1ccccc1Cl | inconclusive: 69.1%
C[C@@H]1CN([C@H](C)CO)C(=O)Cc2cc(NS(=O)(=O)c3ccc(F)cc3)ccc2O[C@H]1CN(C)Cc1ccc(C(F)(F)F)cc1 | inconclusive: 69.3%
Cc1ccc(NC(=O)CCNS(=O)(=O)c2ccc3[nH]c(=O)oc3c2)cc1F | active: 111%
O=C(CSc1nnc(Cc2cccs2)n1-c1ccc(Cl)cc1)NCc1ccc2c(c1)OCO2 | inconclusive: 72.4%
CC(C)Oc1ccc(CCC(=O)NNC(=O)c2ccccc2C(=O)O)cc1 | inconclusive: 5.83%
O=C(CN1CCOCC1)NCC[C@H]1CC[C@H](NC(=O)Nc2ccc(C(F)(F)F)cc2)[C@H](CO)O1 | inactive: 8.27%
Cc1ccc(S(=O)(=O)Nc2ccc(S(=O)(=O)Nc3nccs3)cc2)cc1C | inconclusive: 72.3%
O=C(c1ccccc1)c1ccc(OCC(O)CN2CCN(S(=O)(=O)N3CCCCC3)CC2)cc1 (stereo not drawn) | active: 77.3%
N#Cc1cc(Oc2ccc3ccccc3c2)c(-n2nnc3ccccc32)cc1C#N | inconclusive: 66.5%
Clc1ccc2c(c1)C1OCCC1C(c1ccco1)N2 (stereo not drawn) | inconclusive: 75.2%
Cc1ccc(OC(=O)c2ccc(S(=O)(=O)N(C)C)cc2)c(-n2nc3ccccc3n2)c1 | inconclusive: 72.9%
Cc1noc(C)c1S(=O)(=O)Nc1ccc2c(c1)C(=O)N([C@H](C)CO)C[C@H](C)[C@H](CN(C)S(=O)(=O)c1cccs1)OCCCC[C@H](C)O2 | inconclusive: 67.8%
Cc1c(C=O)c2ccccn2c1C(=O)c1ccc(F)cc1 | inconclusive: 51.6%
CC(=O)c1c(C)[nH]c(C(=O)CSc2nnc(C3CCCCC3)n2N)c1C | active: 122%
O=C(NCc1nnc(SCC(=O)N2CCN(c3ccccc3)CC2)o1)c1ccco1 | active: 93.4%
COc1ccc(C2C(C#N)=C(C)NC3=C2C(=O)CC(C)(C)C3)c(OC)c1 (stereo not drawn) | inconclusive: 78.8%
CCCNC(=O)N1[C@H](CO)[C@@H](c2ccc(C3=CCCC3)cc2)[C@@H]1CN(C)C(C)=O | inactive: 10.9%
CC(=O)N1CCN(S(=O)(=O)c2cccc(C(=O)NCc3ccc(F)cc3)c2)CC1 | active: 77.4%
C[C@H](CO)N1C[C@H](C)[C@H](CN(C)CC2CCCCC2)Oc2ccc(NC(=O)CCCCCC(=O)Nc3ccccc3N)cc2CC1=O | inconclusive: 81.3%
COC(=O)c1cccc(S(=O)(=O)N2CCC(C)CC2)c1 | inactive: -0.918%
Cc1noc(C)c1NC(=O)N(C)C[C@@H]1OCCCC[C@H](C)Oc2ccc(NS(=O)(=O)c3ccc(F)cc3)cc2C(=O)N([C@@H](C)CO)C[C@@H]1C | inactive: -24.9%
C[C@H]1CN([C@@H](C)CO)C(=O)c2cccc(NC(=O)c3ccncc3)c2O[C@@H]1CN(C)C(=O)Nc1cccc2ccccc12 | inactive: -5.16%
C/C=C/Cn1c(SCc2ccc(Cl)cc2)nc2c1c(=O)[nH]c(=O)n2C | inconclusive: 68.9%
O=C(NNC(=O)c1cc2cc(OC(F)(F)F)ccc2[nH]1)c1cccc(C(F)(F)F)c1 | inactive: -15.5%
